This test has as its target T1, Smc3 M74C (S. cerevisiae) (UniProt P47037).
T1 sequence: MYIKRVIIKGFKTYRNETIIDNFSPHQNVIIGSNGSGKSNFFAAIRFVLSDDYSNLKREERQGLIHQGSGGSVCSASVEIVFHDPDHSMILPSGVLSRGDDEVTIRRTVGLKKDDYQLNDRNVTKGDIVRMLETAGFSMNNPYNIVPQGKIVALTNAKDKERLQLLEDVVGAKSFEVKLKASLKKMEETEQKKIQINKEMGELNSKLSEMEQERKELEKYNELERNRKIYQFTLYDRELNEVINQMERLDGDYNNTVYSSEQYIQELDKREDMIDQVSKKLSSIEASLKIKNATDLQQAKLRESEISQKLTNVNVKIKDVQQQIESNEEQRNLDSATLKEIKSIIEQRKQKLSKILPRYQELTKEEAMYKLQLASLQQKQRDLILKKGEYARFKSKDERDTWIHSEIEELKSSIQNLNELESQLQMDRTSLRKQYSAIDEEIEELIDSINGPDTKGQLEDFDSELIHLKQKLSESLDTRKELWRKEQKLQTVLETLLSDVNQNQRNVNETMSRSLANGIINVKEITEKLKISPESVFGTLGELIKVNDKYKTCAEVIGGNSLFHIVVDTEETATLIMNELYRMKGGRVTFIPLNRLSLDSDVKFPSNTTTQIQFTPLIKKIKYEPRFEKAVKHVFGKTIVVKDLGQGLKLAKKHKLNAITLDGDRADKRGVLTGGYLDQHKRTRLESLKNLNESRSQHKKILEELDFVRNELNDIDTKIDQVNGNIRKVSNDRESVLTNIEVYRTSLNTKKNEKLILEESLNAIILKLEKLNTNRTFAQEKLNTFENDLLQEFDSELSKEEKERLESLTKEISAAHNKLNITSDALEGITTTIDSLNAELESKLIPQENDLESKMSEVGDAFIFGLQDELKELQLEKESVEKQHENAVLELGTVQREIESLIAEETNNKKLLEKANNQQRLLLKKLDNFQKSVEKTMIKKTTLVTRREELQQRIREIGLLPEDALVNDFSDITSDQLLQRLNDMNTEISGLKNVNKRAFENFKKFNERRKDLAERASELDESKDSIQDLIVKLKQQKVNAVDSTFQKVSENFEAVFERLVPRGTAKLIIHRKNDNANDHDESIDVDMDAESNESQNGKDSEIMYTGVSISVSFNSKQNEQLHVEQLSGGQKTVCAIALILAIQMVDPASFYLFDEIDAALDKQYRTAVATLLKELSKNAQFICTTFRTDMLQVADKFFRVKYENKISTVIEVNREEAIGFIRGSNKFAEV
Description: cross-linking; in vivo BMOE cross-link of cysteine pairs in exponentially grown yeast cells (on ice, 6 min); Scc1-PK immunoprecipitated, western blot. (In general: In western blotting, separated proteins are transferred to a membrane and probed.)

Residue numbers refer to the chain shown, from its start. Names and notes keep the numbering of the source. These are yes or no findings as the source states them, for the method shown. Binding seen in cells or lysates may run through a third protein. Some results given as binding are weak or reduced against the parent protein; the word gives no strength.

B1: Scc2 N886C (protein, UniProt Q04002 1-1493)
chain: MSYPGKDKNIPGRIIEALEDLPLSYLVPKDGLAALVNAPMRVSLPFDKTIFTSADDGRDVNINVLGTANSTTSSIKNEAEKERLVFKRPSNFTSSANSVDYVPTNFLEGLSPLAQSVLSTHKGLNDSINIEKKSEIVSRPEAKHKLESVTSNAGNLSFNDNSSNKKTKTSTGVTMTQANLAEQYLNDLKNILDIVGFDQNSAEIGNIEYWLQLPNKKFVLTTNCLTKLQMTIKNITDNPQLSNSIEITWLLRLLDVMVCNIKFSKSSLKMGLDDSMLRYIALLSTIVLFNIFLLGKNDSNLHRESYIMEPVNFLSDLIESLKILTIEYGSLKIEFDTFQEALELLPKYIRNGPFLDDNVTAKLVYIFSDLLMNNDIEATTNIQFQSFWDNVKRISSDILVSLFGSFDQQRGFIIEELLSHIEKLPTKRIQKKLRKVGNQNIYITDFTFTLMSMLENINCYSFCNQMKDIAPENIDLLKNEYKKQEEFLFNIVEHINDTILERFFKNPSALRYVIDNFVQDLLLLISSPQWPVTEKILSSLLKRLLSVYSPSMQVSANIETICLQLIGNIGSTIFDIKCSTRDHEDNNLIKMINYPETLPHFFKSFEECIAYNETIKCRRSATRFLWNLRLGTILILEEYTKDAKEQIITVDNELKKILEQIKDGGLGPELENREADFSTIKLDYFSILHAFELLNLYDPYLKLILSLLAKDKIKLRSTAIKCLSMLASKDKVILSNPMVKETIHRRLNDSSASVKDAILDLVSINSSYFEFYQQINNNYNDDSIMVRKHVLRINEKMYDETNDIVTKVYVIARILMKIEDEEDNIIDMARLILLNRWILKVHEVLDQPEKLKEISSSVLLVMSRVAIMNEKCSQLFDLFLNFYLLCKEAHSKEAYDKITHVLTILTDFLVQKIVELNSDDTNEKNSIVDKQNFLNLLAKFADSTVSFLTKDHITALYPYMVSDEKSDFHYYILQVFRCTFEKLANFKQKFLYDLETTLLSRLPKMNVREIDEAMPLIWSVATHRHDTARVAKACSSCLSHLHPYINKANNEEAAIVVDGKLQRLIYLSTGFARFCFPKPSNDKIAFLQEGETLYEHITKCLLVLSKDKITHVIRRVAVKNLTKLCGNHPKLFNSRHVLHLLDKEFQSDQLDIKLVILESLYDLFLLEERKSVRNTGVNSTLSSNSILKKKLLKTNRVEFANDGVCSALATRFLDNILQLCLLRDLKNSLVAIRLLKLILKFGYTNPSHSIPTVIALFASTSQYIRHVAYELLEDLFEKYETLVFSSLSRGVTKAIHYSIHTDEKYYYKHDHFLSLLEKLCGTGKKNGPKFFKVLKRIMQSYLDDITDLTSTNSSVQKSIFVLCTNISNITFVSQYDLVSLLKTIDLTTDRLKEVIMDEIGDNVSSLSVSEEKLSGIILIQLSLQDLGTYLLHLYGLRDDVLLLDIVEESELKNKQLPAKKPDISKFSAQLENIEQYSSNGKLLTYFRKHVKDT
B1: the binding entry was “binds”.

B2: Scc2 R830C (protein, UniProt Q04002 1-1493)
chain: B1 chain with R830C, C886N
In the case of B2, the binding result was “no binding”.
